Assay results: PubChem BioAssay AID1508623 (National Center for Advancing Translational Sciences (NCATS), 2021)
Out of some 48,000 compounds screened, about 450 (0.94%) were called active. Roughly 19% stayed inconclusive and do not appear here. Calls come from the whole dose curve; as a rule, active = well fitted inhibition curve with a large enough effect; inconclusive = small, poorly fitted or top-dose-only effect; inactive = no such curve, though single readings can be large or run the other way. Some of the results follow.

Assay: Primary qHTS for Identification of Small Molecule Inhibitors of Huntingtin Promoter Activity; note: nearly all actives have a fitted effect of over 50% in size
Details: HEK293 HTT promoter firefly luciferase reporter (activity 0% = vehicle and -100% = no light), 24 h; series mostly up to 57.5 µM; activity change, negative = inhibition: at the top concentration
Outline: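 Quantitative HTS used concentration series of up to 57.5 uM final on HEK293 luciferase reporter cells, 24 h at 37 degrees C. Readout was Dual-Glo firefly luminescence.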

Activity change, negative = inhibition, inactive:
CCOC(=O)CCCN1C(=O)CCn2nc(-c3cn(C)c4ccccc34)cc21 -14.7%
CCCCN(Cc1ccccc1)S(=O)(=O)c1cc(Br)cc2c1N(C(C)=O)CC2 -17.2%
COc1ccc(C(=O)Nc2c(C(=O)c3ccc(F)cc3)oc3ccccc23)cc1 10.2%
COc1ccc(-c2nc3c(c(SCC(=O)Nc4ccccc4OC)n2)Cc2cccc(C)c2O3)cc1 -4.77%
CCOCCCNC(=O)c1cc(=O)[nH]c2ccc(S(=O)(=O)N3CCCC3)cc12 -6.81%
CCOc1ccc(CNC(=O)c2cccn2-c2nnc(N3CCCCC3)s2)cc1OC -23.8%
CCCSc1ncc(Cl)c(C(=O)Nc2scc(-c3ccc(C)cc3)c2C(=O)OCC)n1 -14.7%
O=C1NC(=O)[C@@]2(CCOc3ccc(F)cc32)N1 7.9%
CCC(C)NC(=O)Cc1ccc(NC(=O)N2CCCCc3ccccc32)cc1 (stereo unspecified) -21.6%
Cc1cc(C)cc(OCc2cc(=O)n3c4c(sc3n2)CCCC4)c1 -8.27%
N#Cc1ccccc1NC(=O)C(=O)NCC(c1ccc2c(c1)OCO2)N1CCOCC1 (stereo unspecified) 1.93%
Cc1ccc(-n2c(=O)c3oc4ccccc4c3n(CC(=O)Nc3ccc(F)c(Cl)c3)c2=O)cc1C -2.28%
O=C(CS(=O)(=O)c1cccc2nsnc12)Nc1ccc(F)cc1F -4.88%
CC(C)CCNC(=O)c1c2c(nc3ccccc13)C(=O)N(C1CCCCC1)C2 -22.3%
CCCCN(C)C(=O)c1ccc2c(c1)N(Cc1ccc(F)cc1)C(=O)c1ccccc1S2(=O)=O -25.9%
COc1ccccc1N1CCN(S(=O)(=O)CCNC(=O)COc2ccccc2F)CC1 -12.6%
Cc1ccc(CNc2ncccc2-c2nc(-c3ccc(Cl)cc3)no2)cc1 15.4%
O=C(CCCn1c(=O)c2sccc2n(Cc2ccc(Cl)cc2)c1=O)NCc1ccc2c(c1)OCO2 -21.5%
COc1ccc(Br)cc1CNC(=O)CCc1cn(Cc2ccc(C)cc2)c2ccccc12 -28.7%
Cc1scc(CN2CCN(c3ccc(F)cc3)CC2)c1C -5.02%
COC(=O)c1sccc1S(=O)(=O)N1CCN(c2ccc(Cl)cc2)CC1 -20.3%
Cc1ccc(-c2nc(S(=O)(=O)c3ccccc3)c(SCC(=O)NC3CCCCC3)o2)cc1 -14.1%
CC(C)c1ccc(NC(=O)CN2C(=O)CSc3ccc(S(=O)(=O)N4CCCC4)cc32)cc1 -17.6%
CC(C)CC(NC(=O)C1CCCCC1)C(=O)Nc1cccc(C(F)(F)F)c1 (stereo unspecified) -12.1%
Cc1ccc(Cl)cc1NC(=O)c1cc(CN2CCCC2)on1 21.7%
CCc1ccc(NC(=O)c2ccc(NS(=O)(=O)c3c(C)noc3C)cc2)cc1 -21.9%
CCc1cccc(C)c1NC(=O)c1cc(S(=O)(=O)N2CCCCCC2)cn1C -24.7%
COc1ccc(-c2cc(C(F)(F)F)nc(SCCC(=O)Nc3cccc(OC)c3)n2)cc1 -20.7%
O=C(COc1ccc(F)cc1)Nc1ccc(S(=O)(=O)N(Cc2ccccc2)c2ccccc2)cc1 29.5%
CCc1ccc(CNC(=O)c2sc3nc[nH]c(=O)c3c2C)cc1 3.12%
CCc1ccc(Nc2nnc(-c3cc4cc(OC)ccc4oc3=O)s2)cc1 -9.46%
COc1ccc(OC)c(CNc2ncnc3c2nc2n3CCCC2)c1 -21.1%
CCN(C(=O)Cc1c(C(=O)O)c(C)cn1C)c1cccc(Cl)c1 -11%
CCc1c(C)nc(SCc2nc(-c3ccccc3C)no2)[nH]c1=O -27.8%
Cc1ccc(NC(=O)c2sc3nc(-c4ccncc4)ccc3c2N)cc1 6.62%
CCOc1ccc(S(=O)(=O)c2c(C(=O)c3ccc(C)c(C)c3)cnc3ccccc23)cc1 -17.1%
Cc1ccc(CNC(=O)CCc2nnc3n(C)c(=O)c4sccc4n23)cc1 -16.8%
COc1cc(NC(=O)C(NS(=O)(=O)c2ccc3c(c2)CCCC(=O)N3)C(C)C)cc(OC)c1 (stereo unspecified) -21.6%
CC(=O)Nc1ccc(Nc2c(CCC(C)C)c(C)c(C#N)c3nc4ccccc4n23)cc1 5.84% [at 11.5 µM]
CC(=O)N[C@@H](CC(C)C)C(=O)O 9.42%
COC(=O)c1sccc1S(=O)(=O)N(CC(=O)Nc1ccc(C)c(F)c1)c1ccc(C)c(C)c1 -10.9%
Cc1ccccc1Cn1c(=O)n(CCc2ccccc2)c(=O)c2sc3ccccc3c21 35.6%
CCc1ccc(C(=O)NC2=NC(c3cc(OC)ccc3OC)CC(=O)N2)cc1 (stereo unspecified) -20.8%
Cc1ccc(-c2nn(C)c(=O)c3ccccc23)cc1S(=O)(=O)NCCCN(C)C 14.4%
CC(=O)Nc1ccc(NC(=O)C(c2ccccc2)N2Cc3ccccc3C2=O)cc1 (stereo unspecified) -14.4%
COC(=O)c1ccc(-c2nc(-c3ccc(OC)c(OC)c3)no2)cc1 16.5%
O=C(Nc1ccc(-c2nc3cc(NC(=O)c4ccc(Cl)cc4)ccc3o2)cc1)c1ccc(Cl)cc1 -0.0437%
COc1ccc(-c2cc(C(F)(F)F)n3nc(C(=O)Nc4sc5c(c4C(=O)OC(C)C)CCC(C)C5)cc3n2)cc1 (stereo unspecified) 2.44%
CCCN(CCC)C(=O)C1CCCN(S(=O)(=O)c2cc(Br)cc3c2N(C(=O)CC)CC3)C1 (stereo unspecified) -4.42%
CCc1ccc(-n2nc(CO)c(C(=O)NCc3cccnc3)n2)cc1 -23.1%
Cc1cc(C)cc(NC(=O)CCc2c(C)nc3c(c2C)c(=O)n(C)c(=O)n3C)c1 3.67%
O=S(=O)(c1ccc(Br)cc1)c1nnn2c1nc(NCCc1ccccc1)c1sccc12 1.88%
Cc1nc2ccc(S(=O)(=O)NC(C(=O)N3CCN(c4cccc(Cl)c4)CC3)C(C)C)cc2s1 (stereo unspecified) -11.5%
Cc1nc(N2CCCC2)ncc1C(=O)NCc1ccc(F)cc1 -19.8%
Cc1cn2c(=O)c(S(=O)(=O)Nc3ccc(N4CCOCC4)cc3)c(C)nc2s1 4.01%
COCCNC(=O)c1cnn(-c2cccc(C)c2)c1-n1cccc1 9.89%
CC1CCN(S(=O)(=O)c2cc(C(=O)NCc3ccccc3)n(C)c2)CC1 -14.3%
COc1cc2ncc3c(-c4ccccc4)nn(CC(=O)NC4CCCCC4)c3c2cc1OC -19%
COc1ccc(C2=C(C)C(N3CCN(c4ccc(OC)cc4)CC3)=NS2(=O)=O)cc1 -15.3%
COc1ccc(C(=O)NNc2ncnc3c2cnn3-c2ccc(C)cc2C)cc1 -31%
CN(C(=O)c1ccc2c(c1)N(Cc1ccc(F)cc1)C(=O)c1ccccc1S2(=O)=O)C1CCCCC1 -29%
Cc1cc(N2CCC(C(=O)Nc3ccccc3Cl)CC2)n2nc(C)c(-c3ccc(Cl)cc3)c2n1 -5.58%
Fc1cccc(-c2nnn3c2nc(NCc2ccc4c(c2)OCO4)c2ccccc23)c1 -3.4%
CCOC(=O)Cn1c(=O)oc2cc(S(=O)(=O)NC(C)c3ccccc3)ccc21 (stereo unspecified) 2%
CCc1ccc(CN(C(=O)Nc2cccc(Cl)c2)c2ccccn2)cc1 13%
O=C(NCCS(=O)(=O)c1ccc(C(F)(F)F)cn1)c1ccc(Cl)cc1 -0.396%
COc1ccccc1CNC(=O)c1ccc(-n2c(C)cc3c2CCCC3)cc1 10.1%
Cc1c(Cl)cccc1NS(=O)(=O)c1ccc(NS(=O)(=O)c2ccc3c(c2)OCCO3)cc1 -27.8%
COc1ccc(Cl)cc1NC(=O)c1cnc(N2CCCCC2)c2ccccc12 -11.9%
CCOc1ccc(NC(=O)C2CCN(S(=O)(=O)c3c(C)noc3/C=C/c3ccco3)CC2)cc1 -23.4%
CCOc1ccc(NC(=O)CCn2cccn2)cc1 30%
CCCCOC(=O)/C(C#N)=C\c1ccc(-c2ccc(Cl)cc2)o1 10.1%
Cc1ccc(-c2nc3ccccn3c2Nc2ccc3c(c2)OCCO3)o1 -10.6%
O=C(Nc1ccc(Br)cc1)C1CCN(c2ncccn2)CC1 -7.11%
COc1cc(NC(=O)C(=O)Nc2ccc3nc4n(c(=O)c3c2)CCCCC4)cc(OC)c1OC -24.8%
CC(C)NC(=O)N1CCN(S(=O)(=O)c2ccc3c(ccn3C)c2)CC1 -31.7%
Cc1ccc(C)c(NC(=O)CN(C)S(=O)(=O)c2ccc3c(c2)CCC(=O)N3)c1 -15.6%
CCOC(=O)c1cc(-c2ccc(OC)cc2)n(CCC(=O)NCc2ccc(OC)cc2)c1C -1.25%
OCc1ccccc1O[C@@H]1O[C@H](CO)[C@H](O)[C@H](O)[C@H]1O -9%
Cc1ccccc1C(=O)Nc1nnc2n1CCS2 45.5%
CCOC(=O)c1c(C)[nH]c(C)c1S(=O)(=O)N1CCCC(C(=O)NCc2cccc(OC)c2)C1 (stereo unspecified) -8.69%
Cc1cc(C(=O)N2CCN(c3cccc(C)c3C)CC2)c2c(C)nn(-c3ccccc3)c2n1 -12.7%
COc1cc(CNC(=O)CCCCC=CC(C)C)ccc1O 1.93%
COc1cccc(-c2ccc3c(N)c(C(=O)Nc4cc(C(F)(F)F)ccc4OC)sc3n2)c1 14.4%
Cc1ccc(C(=O)c2cn(CC(=O)NCc3ccccc3Cl)c3nc(C)ccc3c2=O)cc1 -5.09%
CCCC(=O)NC(C)c1nc2ccccc2n1Cc1ccccc1 (stereo unspecified) 2.28%
COc1ccc(S(=O)(=O)N2CCCN(CC(=O)Nc3ccc(OC)cc3OC)CC2)cc1 22.8% [at 11.5 µM]
COc1ccccc1CNC(=O)CCC1N=C2c3ccccc3N=C(SCC(=O)Nc3ccc(N(C)C)cc3)N2C1=O (stereo unspecified) -8.14%
Cc1c(C(=O)N(C)C)sc2c1c(=O)n(-c1ccc(Cl)cc1)c(=O)n2Cc1ccccc1F -4.39%
Cc1cccc(OCC(=O)Nc2cc(-c3ccccc3F)nn2-c2ccccc2)c1 -5.46%
CC(C)c1ccc(Nc2ncnc3onc(-c4ccc(F)cc4)c23)cc1 -18.4%
Cc1cc(Cl)ccc1NC(=O)Cn1nnc2sc(-c3ccccc3)cc2c1=O 6.68%
COc1ccc(OC)c2sc(N3CCN(C(=O)CCS(=O)(=O)c4ccc(F)cc4)CC3)nc12 -14.8%
COCCNc1nc2c(c(=O)n(Cc3cccc(Br)c3)c(=O)n2C)n1C -15.7%
COc1cccc(N2CCN(C(=O)c3cc4c(=O)oc5ccc(C)cc5c4s3)CC2)c1 -8.69%
CCCCn1nc(NC(=O)c2cccc(Cl)c2)c2cc3cccc(C)c3nc21 1.29%
